The supplement of paper PMC3334620
Over roughly 33,000 sequences, “E-score (-0.5 to 0.5)” has its median near -0.032; the highest 2% begin near 0.36. The list shows a part of the results.

biological target: T1, Sko1 (UniProt Q02100); assay: PBM E-score (8-mer binding enrichment) (E-score (-0.5 to 0.5)); higher = stronger / more preferred TF binding; most listed sequences are background and not binding sites; details: protein concentration: 200 nM; construct: GST-full length
T1 sequence: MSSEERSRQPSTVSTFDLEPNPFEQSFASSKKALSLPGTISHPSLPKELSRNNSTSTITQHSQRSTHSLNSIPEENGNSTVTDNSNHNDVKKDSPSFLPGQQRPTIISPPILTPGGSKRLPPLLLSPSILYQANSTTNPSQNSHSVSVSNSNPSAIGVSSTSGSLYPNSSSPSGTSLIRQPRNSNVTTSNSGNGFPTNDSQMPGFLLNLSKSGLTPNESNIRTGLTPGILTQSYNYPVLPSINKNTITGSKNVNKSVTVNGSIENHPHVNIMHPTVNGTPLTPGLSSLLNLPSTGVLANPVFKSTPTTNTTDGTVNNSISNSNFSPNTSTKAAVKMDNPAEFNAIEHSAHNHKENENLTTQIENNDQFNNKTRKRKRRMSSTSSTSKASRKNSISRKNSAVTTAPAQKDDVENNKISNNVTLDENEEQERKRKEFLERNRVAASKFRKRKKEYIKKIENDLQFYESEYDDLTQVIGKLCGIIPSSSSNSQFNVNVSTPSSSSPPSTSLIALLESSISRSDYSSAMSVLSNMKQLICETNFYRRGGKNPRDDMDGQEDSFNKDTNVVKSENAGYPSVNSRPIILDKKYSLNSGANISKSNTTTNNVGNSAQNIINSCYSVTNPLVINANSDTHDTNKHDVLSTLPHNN
Procedure: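 Universal 'all 10-mer' protein binding microarrays (Agilent AMADID 015681) probed with GST-tagged S. cerevisiae TFs (full-length or DBD) made by in vitro transcription/translation (PURExpress), about 100-200 nM. Bound TF was detected with fluorescent anti-GST. Each ungapped 8-mer (which stands for itself and its reverse complement) is scored by the PBM enrichment score (E-score), a modified Wilcoxon-Mann-Whitney statistic from -0.5 to +0.5, computed with the Universal PBM Analysis Suite. Scale: above 0.35 generally sequence-specific binding.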

Row | Sequence | PBM E-score
1 | GAAACTCC | -0.27
2 | ATTTCGAA | 0.247
3 | CTTGTCCC | -0.14
4 | GGTGAAAC | -0.0922
5 | AGTAAGAC | 0.125
6 | TCAGATCA | 0.0599
7 | GTACGAGA | 0.2
8 | ACATGACC | -0.00624
9 | CCGAAGAA | -0.0779
10 | ACGAACCC | 0.0159
11 | TATACTCA | 0.192
12 | GCTCCTCA | -0.234
13 | ATAATTTC | 0.299
14 | AGTCAGTA | 0.0569
15 | ATCCTATC | -0.112
16 | GTGAGACA | -0.0497
17 | GCCAAACC | -0.145
18 | ATAGGAAA | 0.175
19 | AGTCCTTC | -0.375
20 | CCCATCCA | -0.314
21 | CGATGCCG | -0.36
22 | CGAGCGGC | -0.177
23 | CAAAGCAA | 0.0522
24 | ACTCAACC | -0.0414
25 | GCCGGCCA | -0.151

Row | Sequence | PBM E-score
26 | ACCCCAAT | 0.125
27 | AGTCAGTC | -0.02
28 | GAGCTAAC | 0.0418
29 | AATTCCGG | -0.065
30 | AGTTGACA | 0.117
31 | CCGGCGTC | -0.053
32 | ACCGCATA | -0.0432
33 | CTCGCGTC | 0.151
34 | CAATATAC | 0.225
35 | ACACCGAT | -0.13
36 | ACAGACAC | 0.0839
37 | CCTACATC | -0.0537
38 | GCTCATCA | -0.0236
39 | ACTATTCT | 0.0612
40 | CGTGCTTA | 0.234
41 | GCCATCCC | -0.319
42 | AGTGCTAC | -0.0938
43 | CCAAGGAC | -0.251
44 | CAAGCTGC | -0.161
45 | CAATAACA | 0.00949
46 | AGAATTGC | -0.0272
47 | TGAGCAAA | 0.133
48 | AGAACGCA | 0.157
49 | TCGATCAA | -0.167
50 | TCTGTCAA | 0.0208

Row | Sequence | PBM E-score
51 | CTGTCTGA | -0.221
52 | ATGTCCGC | -0.0895
53 | GACATCGC | 0.107
54 | ATAAGGTG | 0.232
55 | ATGGTCCA | -0.118
56 | TCGGACAA | 0.0393
57 | TTAGATAA | 0.156
58 | CGTGCATA | 0.208
59 | GAATTATC | 0.251
60 | CACAAAAC | 0.142
61 | CCCCATCC | -0.185
62 | CAACAGTC | -0.102
63 | CGGTTTCC | -0.214
64 | AATCACGA | 0.0581
65 | CTCGTATC | 0.0593
66 | AGGTACAT | 0.153
67 | CCCTAGGA | -0.276
68 | CCTTCGCC | -0.326
69 | ATGCTCAC | 0.0757
70 | ATTCGCGG | 0.1
71 | ACATCTCC | -0.119
72 | AAGTCTAA | -0.0065
73 | TAGGTAAA | 0.169
74 | CGGGTCGC | -0.0711
75 | TGTAGAAA | 0.172

Row | Sequence | PBM E-score
76 | TCTCATAA | 0.0934
77 | CAATTTAG | 0.146
78 | AGCTTCCC | -0.292
79 | AACCACTT | -0.0113
80 | TGCTACAA | 0.131
81 | AACCTGGA | -0.0976
82 | CCCCTCAG | -0.356
83 | CATACAAC | 0.059
84 | CCGGATTC | -0.0976
85 | CTCCTACA | -0.0534
86 | CTTAATGC | 0.0192
87 | AAACGGTG | -0.1
88 | AAACAATT | 0.0401
89 | TACGCCCA | 0.0657
90 | CGGTATAG | -0.236
91 | CATCCTTC | 0.0809
92 | AGGGGAGC | -0.294
93 | CACCGGAG | -0.353
94 | ACAAACCC | -0.0873
95 | AACAATAT | 0.32
96 | GGACGGCC | -0.331
97 | CTAATTAA | 0.202
98 | CAGCTCGA | -0.226
99 | AGTCGCCG | -0.197
100 | AAGTTGTC | 0.0291

Row | Sequence | PBM E-score
101 | GAAATCAC | 0.282
102 | AAAATTCT | 0.0451
103 | CGGGGATC | -0.387
104 | CTGTTCCC | -0.269
105 | AGTACACG | 0.188
106 | GACGCGTA | 0.388
107 | AGAAACGG | -0.00978
108 | GCTGATTA | 0.159
109 | CATACTAC | 0.052
110 | GGTAACAA | 0.247
111 | TACCTGCA | -0.122
112 | ACCCCGCT | -0.233
113 | CACTCGGA | 0.0666
114 | GAGAAAGC | -0.048
115 | CCAGTTGA | -0.0364
116 | GATAGATC | 0.0469
117 | ACTCCTGA | -0.0495
118 | AACCACGT | 0.371
119 | AATCATAA | 0.213
120 | ATGTGGTC | -0.0418
121 | TAAGTGCA | 0.104
122 | AGACACTA | -0.127
123 | GATAGGGA | -0.127
124 | ACCCAAAT | 0.0772
125 | CCGCTACC | -0.239

Row | Sequence | PBM E-score
126 | ATTCCAAG | 0.0791
127 | GGATGCTA | -0.0518
128 | ATGTCCCA | -0.233
129 | GGAGCGAC | -0.083
130 | CGTTGGGC | 0.0143
131 | GAACTCTA | -0.0173
132 | AGGCTGAT | -0.142
133 | GCTCCCCC | -0.322
134 | CCAAAAAA | 0.167
135 | ACCACATA | 0.183
136 | CATACGTA | 0.485
137 | GTGATCTA | 0.127
138 | ACGCATCG | 0.152
139 | GAACGTAC | 0.254
140 | ATAACTCA | 0.0469
141 | CTCTTTAA | 0.0552
142 | TCAATTAA | 0.192
143 | ACTCTTGA | -0.0757
144 | GGGCATAA | -0.0902
145 | AGGGTAAG | -0.0789
146 | TAAACGCA | 0.304
147 | AGATGAAT | -0.0403
148 | CCGGACTA | -0.0654
149 | TCCCACGA | -0.0092
150 | GCTAGGTA | -0.148

Row | Sequence | PBM E-score
151 | AGGCTTAC | -0.0829
152 | AAAAACGT | 0.337
153 | CGGCATAC | -0.00615
154 | AAGTTGTG | 0.0912
155 | CACACGAC | 0.254
156 | ATTACACG | 0.221
157 | AACAAATA | 0.173
158 | GAACTTCA | -0.0971
159 | GGTGTCAA | -0.0467
160 | AGTGCCGA | -0.148
161 | GAGATAGC | -0.015
162 | CCCGCTAG | -0.175
163 | CAGAGTTC | -0.104
164 | GCTAAAAC | -0.0111
165 | CGCCTCAC | -0.0959
166 | AGGACGGG | -0.367
167 | TAGCGTAA | 0.341
168 | CTAGCCTA | -0.22
169 | CGCCCTTC | -0.17
170 | CCTGACGA | 0.24
171 | GGTACAAC | -0.0836
172 | CTCTGCGC | -0.124
